# Measurements published in PubChem BioAssay AID1347165 (National Center for Advancing Translational Sciences (NCATS), 2019).
# “And” between values parts separate entries of the source, which are not always exact repeats. Equal values may be shown once. In all, about 220,000 compounds went through this assay and about 5,700 (2.6%) were called active. Inconclusive means that the source gave no clear call. Such entries were picked first, then a sample of the others. Calls follow the shape of the dose curve; as a rule, active = well fitted inhibition curve with a large enough effect; inconclusive = small, poorly fitted or top-dose-only effect; inactive = no such curve, though single readings can be large or run the other way. Potencies beside an inconclusive call are fits to weak or partial responses and may not hold up.
# Target: Lysine-specific demethylase 5B (Homo sapiens) (UniProt Q9UGL1)
# Sequence of UniProt Q9UGL1 (Q9UGL1 whole entry, looked up): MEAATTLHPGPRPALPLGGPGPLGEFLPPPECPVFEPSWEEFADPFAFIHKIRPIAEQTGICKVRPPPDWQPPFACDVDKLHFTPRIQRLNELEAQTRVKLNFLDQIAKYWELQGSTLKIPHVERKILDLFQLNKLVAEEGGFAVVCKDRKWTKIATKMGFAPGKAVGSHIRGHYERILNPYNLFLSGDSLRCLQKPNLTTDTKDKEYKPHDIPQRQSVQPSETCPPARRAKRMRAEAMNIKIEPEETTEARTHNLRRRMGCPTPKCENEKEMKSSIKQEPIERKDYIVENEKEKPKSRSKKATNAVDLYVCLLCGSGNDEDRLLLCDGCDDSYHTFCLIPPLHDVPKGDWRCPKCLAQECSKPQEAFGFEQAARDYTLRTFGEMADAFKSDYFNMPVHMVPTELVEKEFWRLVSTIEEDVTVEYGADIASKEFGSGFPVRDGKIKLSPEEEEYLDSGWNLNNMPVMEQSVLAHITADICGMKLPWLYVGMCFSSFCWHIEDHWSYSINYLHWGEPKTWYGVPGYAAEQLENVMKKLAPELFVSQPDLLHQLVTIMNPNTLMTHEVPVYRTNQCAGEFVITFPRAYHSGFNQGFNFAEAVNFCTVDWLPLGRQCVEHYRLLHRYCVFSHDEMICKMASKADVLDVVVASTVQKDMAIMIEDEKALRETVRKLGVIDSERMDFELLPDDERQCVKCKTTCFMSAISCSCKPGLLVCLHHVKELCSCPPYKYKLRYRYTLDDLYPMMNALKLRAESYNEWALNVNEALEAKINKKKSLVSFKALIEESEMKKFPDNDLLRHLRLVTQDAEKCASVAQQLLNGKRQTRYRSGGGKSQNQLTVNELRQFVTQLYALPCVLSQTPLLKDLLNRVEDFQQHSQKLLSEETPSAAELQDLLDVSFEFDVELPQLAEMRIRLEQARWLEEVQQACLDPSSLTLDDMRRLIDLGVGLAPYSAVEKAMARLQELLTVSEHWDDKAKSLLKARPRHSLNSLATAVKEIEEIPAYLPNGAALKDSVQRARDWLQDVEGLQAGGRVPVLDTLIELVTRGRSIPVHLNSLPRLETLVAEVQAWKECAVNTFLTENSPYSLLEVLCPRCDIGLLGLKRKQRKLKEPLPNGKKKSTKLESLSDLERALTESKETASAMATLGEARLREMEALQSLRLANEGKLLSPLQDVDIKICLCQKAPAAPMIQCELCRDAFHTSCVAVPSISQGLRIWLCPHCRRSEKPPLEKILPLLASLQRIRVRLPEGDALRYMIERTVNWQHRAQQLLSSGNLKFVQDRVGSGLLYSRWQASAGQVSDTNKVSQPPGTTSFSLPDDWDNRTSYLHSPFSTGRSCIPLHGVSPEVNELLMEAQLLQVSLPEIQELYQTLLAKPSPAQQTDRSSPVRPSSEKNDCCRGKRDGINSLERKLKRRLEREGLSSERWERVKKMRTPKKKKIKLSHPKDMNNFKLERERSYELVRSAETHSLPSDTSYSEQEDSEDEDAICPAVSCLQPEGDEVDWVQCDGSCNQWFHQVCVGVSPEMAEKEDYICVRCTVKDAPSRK
# Assay: Primary screen for KDM5B Histone Demethylases FDH-coupled qHTS; also: nearly all actives have a fitted effect of over 70% in size
# Settings: FDH-coupled NADH fluorescence (FDH is formaldehyde dehydrogenase); series mostly up to 57.7 µM
# In short: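 Coupled FDH/NAD⁺ fluorescence readout. KDM5BΔAP 200 nM final; compound titration, 10 min RT preincubation; substrate mix 12.5 µM H3K4me3, 25 µM 2-OG, 50 µM Fe(II), 100 µM ascorbate, 0.25 mM NAD⁺, 0.25 U/mL FDH; ΔRFU over 30 min.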
# Potency is read from the fitted curve at half-maximal effect; tags tell the direction and shape of the fitted curve.
row,Structure (SMILES),Potency
1,CCN(CC)CCCNc1ncnc2c1cnn2-c1ccc(C)c(C)c1,"inconclusive: 28.2 µM [inhibitor, partial curve, poor fit]"
2,Cc1csc2nc(COc3cccc(NC(=O)c4ccccc4F)c3)cc(=O)n12,"inconclusive: 31.6 µM [inhibitor, partial curve, poor fit]"
3,COc1ccccc1CCC(=O)N1CCC2(CC1)N=C(c1cccc(Br)c1)NO2,"inconclusive: 28.2 µM [inhibitor, partial curve, poor fit]"
4,CN(C)c1cccc(-c2nccc3c(=O)cc(N(C)C4CCOCC4)oc23)c1,active: 28.2 µM
5,CNC(=O)[C@@H](Cc1ccccc1)N1CCC[C@H]1C(=O)NCc1ccccn1,active: 28.2 µM
6,Cc1ccc(OCc2nc(C3CCCN3C(=O)Nc3ccc(C)c(F)c3)no2)cc1 (stereo not given),inactive
7,Cc1ccsc1-c1[nH]nc2ncc(-c3cccc(O)c3)nc12,"inconclusive: 22.4 µM [inhibitor, partial curve, poor fit]"
8,Cc1ccc(CCNC(=O)C2CCC(=O)N(Cc3ccccc3F)C2)o1 (stereo not given),"inconclusive: 25.1 µM [inhibitor, single point]"
9,COC(=O)c1ccccc1NC(=O)c1sc2nc(C)cc(C)c2c1NC(=O)c1ccccc1OC,"inconclusive: 17.8 µM [inhibitor, partial curve, poor fit]"
10,Cc1ccc(Cl)cc1-n1ncc2c(N3CCN(Cc4ccccc4)CC3)ncnc21,"inconclusive: 28.2 µM [inhibitor, partial curve, poor fit]"
11,Cn1nc(C(=O)N2CCC3(CC2)N=C(c2ccc(Br)cc2)NO3)c2ccccc21,inactive
12,CCOC(=O)c1c(NC(=O)c2ccc(S(=O)(=O)N(C)C3CCCCC3)cc2)sc2c1CCN(C(C)C)C2,"inconclusive: 28.2 µM [inhibitor, partial curve, poor fit]"
13,Cc1ccc(C(=O)N2CCC([C@@H]3CNC[C@H]3CO)CC2)c(C)c1,inactive
14,Cc1noc(C)c1S(=O)(=O)N(CC(=O)NCCc1ccccc1)c1ccc(C(C)C)cc1,"inconclusive: 6.31 µM [inhibitor, partial curve, poor fit]"
15,Cc1ccsc1C(=O)N(CC#N)C1CC1,inactive
16,O=C(NCC1CC1)c1cc2cn(C3CC3)cc2s1,"inconclusive: 14.1 µM [inhibitor, partial curve, poor fit]"
17,Cc1oc(-c2ccc(C(=O)NCCCN3CCOCC3)cc2)nc1CS(=O)(=O)c1ccccc1,"inconclusive: 28.2 µM [inhibitor, partial curve, poor fit]"
18,Cc1cc2c(nc1C)oc1c(=O)n(CC(=O)N3CCOCC3)cnc12,inactive
19,CCCCc1cc(=O)oc2cc(OCc3nn[nH]n3)ccc12,"inconclusive: 28.2 µM [inhibitor, partial curve, poor fit] and inconclusive: 22.4 µM [inhibitor, partial curve, poor fit]"
20,Cc1ccc(OCC(=O)N2CCCC(CO)(CCOc3ccccc3)C2)cc1 (stereo not given),inactive

row,Structure (SMILES),Potency
1,N#CC1(NC(=O)COC(=O)CSc2nc3ccccc3o2)CCCCC1,inactive
2,CC(C)Oc1cccc2c1c(NC(=O)c1ccn(C)n1)nn2Cc1ccccc1,active: 25.1 µM
3,COCCCNC(=O)Cn1ccc2ccc(Cl)cc21,inactive
4,Fc1cccc(-c2nnn3c2nc(NC2CCCCC2)c2ccccc23)c1,"inconclusive: 2.51 µM [inhibitor, partial curve, poor fit]"
5,CCN1C(=O)COc2ccc(-c3nc(NC(=O)c4cccs4)sc3C)cc21,"inconclusive: 25.1 µM [inhibitor, single point]"
6,COCCN1CC(CO)C2(CCN(Cc3ccc(Cl)c(F)c3)CC2)C1 (stereo not given),"inconclusive: 28.2 µM [inhibitor, partial curve, poor fit]"
7,COc1cccc(CN(C)C(=O)CSc2nc(-c3cccs3)nc3ccccc23)c1OC,"inconclusive: 39.8 µM [inhibitor, single point]"
8,O[C@H]1[C@H](NCc2cccc(C(F)(F)F)c2)[C@@H](c2ccc(N3CCOCC3)nc2)C[C@H]1O,active: 31.6 µM
9,COc1ccc2nc(N(Cc3cccnc3)C(=O)Cc3ccccc3)sc2c1,"inconclusive: 39.8 µM [inhibitor, single point]"
10,FC(F)(F)Oc1ccc(-c2cnc([C@@H]3COCCN3Cc3ccncc3)[nH]2)cc1,"inconclusive: 39.8 µM [inhibitor, partial curve, poor fit]"
11,N[C@@H](Cc1cnc[nH]1)C(=O)N1CCC2(CC1)CN(CCOc1ccccc1)C(=O)O2,"inconclusive: 17.8 µM [inhibitor, partial curve, poor fit]"
12,Nc1nnnn1Cc1nnc(SCc2ccccc2Cl)n1-c1ccccc1,inactive
13,O=C1NCCCCCCN(Cc2ccncc2)[C@@H]2CN(C(=O)NCCc3ccccc3)CC[C@@H]12,"inconclusive: 28.2 µM [inhibitor, partial curve, poor fit]"
14,COc1cc(S(=O)(=O)NCCc2c(C)[nH]c3ccccc23)c(C)cc1C,"inconclusive: 15.8 µM [inhibitor, partial curve, poor fit]"
15,O=C1CN(CC(=O)Nc2ccc(F)cc2F)CCN1,inactive
16,COc1ccc(N(Cc2cc3cccc(C)c3[nH]c2=O)C(=O)c2cccc(Cl)c2)cc1,"inconclusive: 17.8 µM [inhibitor, partial curve, poor fit]"
17,O=C(NC[C@H]1Cn2c(-c3ccc4c(c3)OCCO4)cnc2CO1)C1CC1,"inconclusive: 28.2 µM [inhibitor, partial curve, poor fit]"
18,COc1ccc(CCNC(=O)c2nc(-c3ccc(Cl)cc3)n3c2CCCCC3)c(OC)c1,"inconclusive: 25.1 µM [inhibitor, single point]"
19,CC(C)NC(=O)N1CCNc2cnc(Nc3cccc(C(F)(F)F)c3)nc2C1,"inconclusive: 39.8 µM [inhibitor, partial curve, poor fit]"
20,Cc1c(-c2ccccc2)[nH]c2ccc(Cl)cc12,"inconclusive: 28.2 µM [inhibitor, partial curve, poor fit]"
